# Measurements reported in the supplement of paper PMC8728848.
# The list shows a part of the results.
# Assays:
# Assay in all cases: glycan array binding signal (z-score within array); higher = stronger binding
# Settings in all cases: glycan notation: IUPAC condensed, linker removed
# [1] = biological target: Gal3S(b1-3)GlcNAc
# Summary of the method: (§1)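 Columns mapping to the same glycan were averaged after glycan names were converted to IUPAC-condensed notation. The data come from 3228 arrays in the Consortium for Functional Glycomics database, limited to those with an available protein sequence. Binding is reported as a within-array Z-score averaged across arrays of one protein sequence and across linkers.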
# [2] = biological target: Gal3S(b1-3)[Fuc(a1-4)]GlcNAc
# Summary of the method: as §1
# [3] = biological target: Gal3S(b1-4)Glc
# Summary of the method: as §1
# [4] = biological target: Gal3S(b1-4)Glc6S
# Summary of the method: as §1
# [5] = biological target: Gal3S(b1-4)GlcNAc
# Summary of the method: as §1
# [6] = biological target: Gal3S(b1-4)GlcNAc6S
# Summary of the method: as §1
# [7] = biological target: Gal3S(b1-4)[Fuc(a1-3)]Glc
# Summary of the method: as §1
# [8] = biological target: Gal3S(b1-4)[Fuc(a1-3)]Glc6S
# Summary of the method: as §1
# [9] = biological target: Gal3S(b1-4)[Fuc(a1-3)]GlcNAc
# Summary of the method: as §1
# [10] = biological target: Gal3S(b1-4)[Fuc(a1-3)]GlcNAc6S
# Summary of the method: as §1
# [11] = biological target: Gal3S4S(b1-4)GlcNAc
# Summary of the method: as §1
# [12] = biological target: Gal3S6S(b1-4)GlcNAc
# Summary of the method: as §1
# [13] = biological target: Gal3S6S(b1-4)GlcNAc6S
# Summary of the method: as §1
# [14] = biological target: Gal4S(b1-4)GlcNAc
# Summary of the method: as §1
# [15] = biological target: Gal4S6S(b1-4)GlcNAc
# Summary of the method: as §1
# [16] = biological target: Gal6P(b1-4)GlcNAc
# Summary of the method: as §1
# [17] = biological target: Gal6S(b1-3)GlcNAc
# Summary of the method: as §1
# [18] = biological target: Gal6S(b1-3)GlcNAc6S
# Summary of the method: as §1
# [19] = biological target: Gal6S(b1-4)Glc
# Summary of the method: as §1
# [20] = biological target: Gal6S(b1-4)Glc6S
# Summary of the method: as §1
# [21] = biological target: Gal6S(b1-4)GlcNAc
# Summary of the method: as §1
# [22] = biological target: Gal6S(b1-4)GlcNAc6S
# Summary of the method: as §1
# [23] = biological target: GalNAc(a1-3)Gal
# Summary of the method: as §1
# [24] = biological target: GalNAc(a1-3)GalNAc
# Summary of the method: as §1
# [25] = biological target: GalNAc(a1-3)GalNAc(a1-3)Gal(a1-4)Gal(b1-4)GlcNAc
# Summary of the method: as §1
# [26] = biological target: GalNAc(a1-3)GalNAc(b1-3)Gal(a1-4)Gal(b1-4)Glc
# Summary of the method: as §1
# [27] = biological target: GalNAc(b1-3)Gal
# Summary of the method: as §1
# [28] = biological target: GalNAc(b1-3)Gal(a1-4)Gal(b1-4)GlcNAc
# Summary of the method: as §1
# [29] = biological target: GalNAc(b1-3)Gal(a1-4)Gal(b1-4)GlcNAc(b1-3)Gal(b1-4)Glc
# Summary of the method: as §1
# [30] = biological target: GalNAc(b1-3)Gal(a1-6)Gal(b1-4)Glc
# Summary of the method: as §1
# [31] = biological target: GalNAc(b1-3)GalNAc
# Summary of the method: as §1
# [32] = biological target: GalNAc(b1-3)GlcNAc
# Summary of the method: as §1
# [33] = biological target: GalNAc(b1-4)Gal(b1-4)Glc
# Summary of the method: as §1
# [34] = biological target: GalNAc(b1-4)GlcNAc
# Summary of the method: as §1
# [35] = biological target: GalNAc(b1-4)GlcNAc(b1-2)Man
# Summary of the method: as §1
# [36] = biological target: GalNAc(b1-4)GlcNAc(b1-2)Man(a1-3)[GalNAc(b1-4)GlcNAc(b1-2)Man(a1-6)]Man(b1-4)GlcNAc(b1-4)GlcNAc
# Summary of the method: as §1
# [37] = biological target: GalNAc(b1-4)GlcNAc(b1-3)GalNAc(b1-4)GlcNAc
# Summary of the method: as §1
# [38] = biological target: GalNAc(b1-4)GlcNAc6S
# Summary of the method: as §1
# [39] = biological target: GalNAc(b1-6)GalNAc
# Summary of the method: as §1
# [40] = biological target: GalNAc3S(b1-4)GlcNAc
# Summary of the method: as §1
# [41] = biological target: GalNAc3S(b1-4)GlcNAc3S
# Summary of the method: as §1
# [42] = biological target: GalNAc3S(b1-4)[Fuc(a1-3)]GlcNAc
# Summary of the method: as §1
# [43] = biological target: GalNAc4S6S(b1-4)GlcNAc
# Summary of the method: as §1
# [44] = biological target: GalNAc6S(b1-4)GlcNAc
# Summary of the method: as §1
# [45] = biological target: Glc(a1-4)Glc
# Summary of the method: as §1
binder,measurement,setting,value
"HPA (Helix pomatia), Q2F1K8 (protein) MQAFYSGLLLLCVVAFAAAQRVQSGKIDCGNDAGWAKVPSDDPGRDNTRELAKNITFASPYCRPPVVLLSITQLDVEQSQNLRVIARLYSVSPTGFKASCYTWHNTKVYSMSISWISIENY",glycan array binding signal (z-score),[1],-0.264
same,glycan array binding signal (z-score),[2],-0.189
same,glycan array binding signal (z-score),[3],-0.285
same,glycan array binding signal (z-score),[4],-0.305
same,glycan array binding signal (z-score),[5],-0.267
same,glycan array binding signal (z-score),[6],-0.75
same,glycan array binding signal (z-score),[7],-0.697
same,glycan array binding signal (z-score),[8],0.222
same,glycan array binding signal (z-score),[9],-0.246
same,glycan array binding signal (z-score),[10],-0.246
same,glycan array binding signal (z-score),[11],-0.243
same,glycan array binding signal (z-score),[12],-0.098
same,glycan array binding signal (z-score),[13],-0.136
same,glycan array binding signal (z-score),[14],-0.282
same,glycan array binding signal (z-score),[15],-0.142
same,glycan array binding signal (z-score),[16],-0.422
same,glycan array binding signal (z-score),[17],-0.498
same,glycan array binding signal (z-score),[18],-0.301
same,glycan array binding signal (z-score),[19],-0.219
same,glycan array binding signal (z-score),[20],-0.345
same,glycan array binding signal (z-score),[21],-0.261
same,glycan array binding signal (z-score),[22],-0.503
same,glycan array binding signal (z-score),[23],2.85
same,glycan array binding signal (z-score),[24],3.28
same,glycan array binding signal (z-score),[25],3.71
same,glycan array binding signal (z-score),[26],7.34
same,glycan array binding signal (z-score),[27],-0.206
same,glycan array binding signal (z-score),[28],-0.169
same,glycan array binding signal (z-score),[29],-0.126
same,glycan array binding signal (z-score),[30],-0.138
same,glycan array binding signal (z-score),[31],0.839
same,glycan array binding signal (z-score),[32],-0.402
same,glycan array binding signal (z-score),[33],-0.278
same,glycan array binding signal (z-score),[34],-0.188
same,glycan array binding signal (z-score),[35],-0.286
same,glycan array binding signal (z-score),[36],1.57
same,glycan array binding signal (z-score),[37],-0.371
same,glycan array binding signal (z-score),[38],-0.346
same,glycan array binding signal (z-score),[39],-0.374
same,glycan array binding signal (z-score),[40],-0.366
same,glycan array binding signal (z-score),[41],-0.403
same,glycan array binding signal (z-score),[42],-0.287
same,glycan array binding signal (z-score),[43],-0.399
same,glycan array binding signal (z-score),[44],-0.44
same,glycan array binding signal (z-score),[45],-0.227
